This is one part of the list. Binding of human transcription factors and regulators to the viral nucleoprotein by AlphaScreen, crude cell-free proteins, amounts not normalised, one pass. Fold of the Venus control; higher = more signal. No active / inactive call. Single-pass screen; sequences are the whole Swiss-Prot entries looked up by name.

The record followed here is the supplement of paper PMC12423691.

The labels stand for the following.
B1: SOX10, P56693 (protein)
chain: MAEEQDLSEVELSPVGSEEPRCLSPGSAPSLGPDGGGGGSGLRASPGPGELGKVKKEQQDGEADDDKFPVCIREAVSQVLSGYDWTLVPMPVRVNGASKSKPHVKRPMNAFMVWAQAARRKLADQYPHLHNAELSKTLGKLWRLLNESDKRPFIEEAERLRMQHKKDHPDYKYQPRRRKNGKAAQGEAECPGGEAEQGGTAAIQAHYKSAHLDHRHPGEGSPMSDGNPEHPSGQSHGPPTPPTTPKTELQSGKADPKRDGRSMGEGGKPHIDFGNVDIGEISHEVMSNMETFDVAELDQYLPPNGHPGHVSSYSAAGYGLGSALAVASGHSAWISKPPGVALPTVSPPGVDAKAQVKTETAGPQGPPHYTDQPSTSQIAYTSLSLPHYGSAFPSISRPQFDYSDHQPSGPYYGHSGQASGLYSAFSYMGPSQRPLYTAISDPSPSGPQSHSPTHWEQPVYTTLSRP
B2: GMEB1, Q9Y692 (protein)
chain: MANAEVSVPVGDVVVVPTEGNEGENPEDTKTQVILQLQPVQQGLFIDGHFYNRIYEAGSENNTAVVAVETHTIHKIEEGIDTGTIEANEDMEIAYPITCGESKAILLWKKFVCPGINVKCVKFNDQLISPKHFVHLAGKSTLKDWKRAIRLGGIMLRKMMDSGQIDFYQHDKVCSNTCRSTKFDLLISSARAPVPGQQTSVVQTPTSADGSITQIAISEESMEEAGLEWNSALTAAVTMATEEGVKKDSEEISEDTLMFWKGIADVGLMEEVVCNIQKEIEELLRGVQQRLIQAPFQVTDAAVLNNVAHTFGLMDTVKKVLDNRRNQVEQGEEQFLYTLTDLERQLEEQKKQGQDHRLKSQTVQNVVLMPVSTPKPPKRPRLQRPASTTVLSPSPPVQQPQFTVISPITITPVGQSFSMGNIPVATLSQGSSPVTVHTLPSGPQLFRYATVVSSAKSSSPDTVTIHPSSSLALLSSTAMQDGSTLGNMTTMVSPVELVAMESGLTSAIQAVESTSEDGQTIIEIDPAPDPEAEDTEGKAVILETELRTEEKVVAEMEEHQHQVHNVEIVVLED
B3: MYOCD, Q8IZQ8 (protein)
chain: MTLLGSEHSLLIRSKFRSVLQLRLQQRRTQEQLANQGIIPPLKRPAEFHEQRKHLDSDKAKNSLKRKARNRCNSADLVNMHILQASTAERSIPTAQMKLKRARLADDLNEKIALRPGPLELVEKNILPVDSAVKEAIKGNQVSFSKSTDAFAFEEDSSSDGLSPDQTRSEDPQNSAGSPPDAKASDTPSTGSLGTNQDLASGSENDRNDSASQPSHQSDAGKQGLGPPSTPIAVHAAVKSKSLGDSKNRHKKPKDPKPKVKKLKYHQYIPPDQKAEKSPPPMDSAYARLLQQQQLFLQLQILSQQQQQQQHRFSYLGMHQAQLKEPNEQMVRNPNSSSTPLSNTPLSPVKNSFSGQTGVSSFKPGPLPPNLDDLKVSELRQQLRIRGLPVSGTKTALMDRLRPFQDCSGNPVPNFGDITTVTFPVTPNTLPNYQSSSSTSALSNGFYHFGSTSSSPPISPASSDLSVAGSLPDTFNDASPSFGLHPSPVHVCTEESLMSSLNGGSVPSELDGLDSEKDKMLVEKQKVINELTWKLQQEQRQVEELRMQLQKQKRNNCSEKKPLPFLAASIKQEEAVSSCPFASQVPVKRQSSSSECHPPACEAAQLQPLGNAHCVESSDQTNVLSSTFLSPQCSPQHSPLGAVKSPQHISLPPSPNNPHFLPSSSGAQGEGHRVSSPISSQVCTAQMAGLHSSDKVGPKFSIPSPTFSKSSSAISEVTQPPSYEDAVKQQMTRSQQMDELLDVLIESGEMPADAREDHSCLQKVPKIPRSSRSPTAVLTKPSASFEQASSGSQIPFDPYATDSDEHLEVLLNSQSPLGKMSDVTLLKIGSEEPHFDGIMDGFSGKAAEDLFNAHEILPGPLSPMQTQFSPSSVDSNGLQLSFTESPWETMEWLDLTPPNSTPGFSALTTSSPSIFNIDFLDVTDLNLNSSMDLHLQQW
B4: E2F6, O75461 (protein)
chain: MSQQRPARKLPSLLLDPTEETVRRRCRDPINVEGLLPSKIRINLEDNVQYVSMRKALKVKRPRFDVSLVYLTRKFMDLVRSAPGGILDLNKVATKLGVRKRRVYDITNVLDGIDLVEKKSKNHIRWIGSDLSNFGAVPQQKKLQEELSDLSAMEDALDELIKDCAQQLFELTDDKENERLAYVTYQDIHSIQAFHEQIVIAVKAPAETRLDVPAPREDSITVHIRSTNGPIDVYLCEVEQGQTSNKRSEGVGTSSSESTHPEGPEEEENPQQSEELLEVSN
B5: CDX1, P47902 (protein)
chain: MYVGYVLDKDSPVYPGPARPASLGLGPQAYGPPAPPPAPPQYPDFSSYSHVEPAPAPPTAWGAPFPAPKDDWAAAYGPGPAAPAASPASLAFGPPPDFSPVPAPPGPGPGLLAQPLGGPGTPSSPGAQRPTPYEWMRRSVAAGGGGGSGKTRTKDKYRVVYTDHQRLELEKEFHYSRYITIRRKSELAANLGLTERQVKIWFQNRRAKERKVNKKKQQQQQPPQPPMAHDITATPAGPSLGGLCPSNTSLLATSSPMPVKEEFLP
B6: SIX1, Q15475 (protein)
chain: MSMLPSFGFTQEQVACVCEVLQQGGNLERLGRFLWSLPACDHLHKNESVLKAKAVVAFHRGNFRELYKILESHQFSPHNHPKLQQLWLKAHYVEAEKLRGRPLGAVGKYRVRRKFPLPRTIWDGEETSYCFKEKSRGVLREWYAHNPYPSPREKRELAEATGLTTTQVSNWFKNRRQRDRAAEAKERENTENNNSSSNKQNQLSPLEGGKPLMSSSEEEFSPPQSPDQNSVLLLQGNMGHARSSNYSLPGLTASQPSHGLQTHQHQLQDSLLGPLTSSLVDLGS
B7: RBPJL, Q9UBG7 (protein)
chain: MDPAGAADPSVPPNPLTHLSLQDRSEMQLQSEADRRSLPGTWTRSSPEHTTILRGGVRRCLQQQCEQTVRILHAKVAQKSYGNEKRFFCPPPCVYLSGPGWRVKPGQDQAHQAGETGPTVCGYMGLDSASGSATETQKLNFEQQPDSREFGCAKTLYISDADKRKHFRLVLRLVLRGGRELGTFHSRLIKVISKPSQKKQSLKNTDLCISSGSKVSLFNRLRSQTVSTRYLSVEDGAFVASARQWAAFTLHLADGHSAQGDFPPREGYVRYGSLVQLVCTVTGITLPPMIIRKVAKQCALLDVDEPISQLHKCAFQFPGSPPGGGGTYLCLATEKVVQFQASPCPKEANRALLNDSSCWTIIGTESVEFSFSTSLACTLEPVTPVPLISTLELSGGGDVATLELHGENFHAGLKVWFGDVEAETMYRSPRSLVCVVPDVAAFCSDWRWLRAPITIPMSLVRADGLFYPSAFSFTYTPEYSVRPGHPGVPEPATDADALLESIHQEFTRTNFHLFIQT

The assay deals with nucleoprotein N of Crimean-Congo hemorrhagic fever virus. Put plainly: AlphaScreen luminescence signal relative to Venus negative control (fold); higher = stronger binding to CCHFV N. The protocol: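 AlphaScreen binding of cell-free made, FLAG-GST-tagged human transcription factors and regulators (crude translation products) to biotinylated N protein; signal as fold of the FLAG-GST-Venus control. One pass.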
For orientation: Bead proximity is the source of the signal in Alpha formats.
For B1, the AlphaScreen luminescence signal was 2.42. B2 registered an AlphaScreen luminescence signal of 1.72. Then B3, with 2.33; and B4, with 1.81; and B5, with 3.58. As for B6, the AlphaScreen luminescence signal was determined as 3.53.

As to B7, the AlphaScreen luminescence signal is 3.86.
